# Measured values: the RNAGym collection of RNA variant scans (doi:10.1093/nar/gkz1192)
# Read counts are not given, so values of variants with three or more changes are uncertain.
# B1: CPEB3 Ribozyme (parent)
# chain: UAACAGGGGGCCACAGCAGAAGCGUUCACGUCGCAGCCCCUGUCAGAUUCUGGUGAAUCUGCGAAUUCUGCUGUAUAUCUC
# Variants of: B1
# Test: self-cleavage, relative activity (ratio to wild type); higher = more cleavage; in vitro, sequencing
# Method in brief: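 After error-prone PCR and barcoding, CPEB3 ribozyme mutant libraries were transcribed with T7 RNA polymerase at 37°C for 5 hours, then given 15 min with DNase I before an EDTA stop, and they cleaved during both steps. Reverse transcription with template switching preceded Illumina sequencing. Relative activity divides a variant's cleaved/total read fraction by the unmutated ribozyme's. At least 5 reads were required per variant, and three batches were averaged.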
row,Variant,self-cleavage
1,G7A A45U U54G U76C,0.07
2,G7A A56G U74C,0.29
3,G7A A57G U80C,0.07
4,G7A A64G U67C,0.13
5,G7A A64G U69C U76C A77G,0.1
6,G7A A64G U76C A77G,0.15
7,G7A A64U U76A,0.07
8,G7A A65G G73A,0.1
9,G7A C11A A35U U43A,0.06
10,G7A C11U A28U G52U A57G U76C,0.03
11,G7A C12U G70C,0.07
12,G7A C12U U26G U43C U48C C62G U66C,0.02
13,G7A C17U U31G,0.06
14,G7A C27A A64G C79U,0
15,G7A C27U A64G U80C,0.07
16,G7A C29A U48C U60C,0.17
17,G7A C39U A57G,0.17
18,G7A C40G A47G U51A U54C U60C U69A,0.07
19,G7A C40U U49A,0.21
20,G7A C44A G70A,0.06
21,G7A C44U A57U A65G U74C,0.11
22,G7A G8A A18U U80C,0.07
23,G7A G8A A64G,0.24
24,G7A G9A A15U G16A A18U U51C U72C,0.06

row,Variant,self-cleavage
1,G7A G9A G10U C11A U51C U76C,0.07
2,G7A G9A G42A A45G U54C A65U,0.1
3,G7A G9A G42A U54C A65U U66C,0.08
4,G7A G9A U48C U54C U60C,0.04
5,G7A G9U C37G G63U,0.22
6,G7A G10A A20U,0.21
7,G7A G10C U26G C50A U60C,0.07
8,G7A G16A A47U U80C,0.06
9,G7A G19U U54C A75G,0.03
10,G7A G22C A45U,0.15
11,G7A G24A U31C U74C,0.14
12,G7A G52A U80C,0.1
13,G7A G55U U67C U69A U72C,0.16
14,G7A G63A U69A U78C,0.06
15,G7A U25A A64G A65G U74A,0.05
16,G7A U25A U31C G33A U51C,0.05
17,G7A U25A U31G A35G C59U,0.07
18,G7A U25C A28C,0.03
19,G7A U25C A28U U60C U67C A77U,0.04
20,G7A U25C A57G C62A A65G U72A,0.08
21,G7A U25C A57G U72A,0.05
22,G7A U25C C62U U67A,0.04
23,G7A U25C U26A A45U A75G,0.03
24,G7A U25C U41C A45G U67A,0.14

row,Variant,self-cleavage
1,G7A U25C U41C A64G U78A,0.2
2,G7A U25C U43C U80C,0.21
3,G7A U25C U51A U58C,0.12
4,G7A U25C U60C U67A,0.16
5,G7A U25C U67A U80C,0.05
6,G7A U25C U76A,0.07
7,G7A U26A A35G U60C,0.08
8,G7A U26A A35U U43A,0.12
9,G7A U26C A45G U72C,0.05
10,G7A U26C A47U G61A A64G C68U U72A,0.06
11,G7A U26C U51C U66A,0.07
12,G7A U26C U67A U76A,0.25
13,G7A U26C U69C U74C U78A,0.19
14,G7A U31C A47U U78C,0.18
15,G7A U31C U48C U78C,0.06
16,G7A U31C U58C U69C,0.05
17,G7A U31C U74C C79U,0.07
18,G7A U31G A56G U69C,0.06
19,G7A U31G U43C U49C,0.07
20,G7A U41A A64U,0.25
21,G7A U41C G70A,0.24
22,G7A U41C U60C G70C U76C,0.05
23,G7A U41C U67C,0.12
24,G7A U41C U72C,0.05

row,Variant,self-cleavage
1,G7A U43A A45G U72C,0.09
2,G7A U43A U60A U69C U74A,0.07
3,G7A U43C A45U U69A U80A,0.05
4,G7A U43C U67C,0.08
5,G7A U48C C62G A75G C79A,0.08
6,G7A U48C U60A A75C,0.07
7,G7A U54G U80C,0.25
8,G7A U58C U76C,0.06
9,G7A U66C U72C,0.06
10,G7A U67A U69C,0.13
11,G7A U69C U74C,0.18
12,G7C A13G A18U A35U A57U,0.24
13,G7C A13G A18U A65G U72A G73U,0.05
14,G7C A13G U54A A65G U67C U72A,0.03
15,G7C A13U A47G U72A,0.23
16,G7C A13U A56G U58G A65G,0.29
17,G7C A18G U25C,0.41
18,G7C A18G U41A A65U,0.06
19,G7C A18U A20U U31A U54G U78A,0.04
20,G7C A18U A57C U58G U69C,0.06
21,G7C A18U U51A A64G A65G U66C U67C,0.07
22,G7C A20G A21G A35U U43G U54G,0.09
23,G7C A20G A28G A35G U72G,0.03
24,G7C A20G A47G,0.32

row,Variant,self-cleavage
1,G7C A20U U25C,0.33
2,G7C A35C C68A,0.02
3,G7C A35G U49A A64G,0.06
4,G7C A35G U51C U60C,0.26
5,G7C A35U U41C U51C,0.07
6,G7C A45G A57U U69A U72C,0.05
7,G7C A47G U48C,0.33
8,G7C A57G U66A,0.14
9,G7C C11A C17U A18G C29U A45G,0.06
10,G7C C11A U26C U69A,0.05
11,G7C C11U U26C U60C U80C,0.06
12,G7C C12U A20G G61C U72C,0.03
13,G7C C12U U49C A75U,0.05
14,G7C C14U G33C C38A U72A,0.04
15,G7C C17U A28G A75G,0.03
16,G7C C17U U51A,0.47
17,G7C C23U A56G,0.24
18,G7C C23U U51A A77U,0.27
19,G7C C23U U51A U67A,0.12
20,G7C G10A U72C A75G,0.09
21,G7C G10C A13C U26C U54A U60C,0.54
22,G7C G10C A64U U76C,0.04
23,G7C G53C G61U U80C,0.19
24,G7C U25C A28G U51A U74C,0.06

row,Variant,self-cleavage
1,G7C U25C A56G U72A,0.08
2,G7C U25C A57U,0.22
3,G7C U25C C32U A57U G61A A64G,0.16
4,G7C U25C U41C U43C A65G U80A,0.05
5,G7C U25C U80C,0.27
6,G7C U26C A28U U54C,0.21
7,G7C U26C U67A,0.22
8,G7C U26G A64C,0.04
9,G7C U31A A45C U67A,0.05
10,G7C U31A U43C U49C U54C A75G,0.05
11,G7C U31C A35U A64G,0.17
12,G7C U31C A56G A64C U69C,0.07
13,G7C U31C U54C U60C U72A U78A,0.05
14,G7C U41A U69C,0.04
15,G7C U41C A57G U60A U72C,0.08
16,G7C U41C U78C,0.32
17,G7C U41G A65G U69A U72C U74C,0.19
18,G7C U43A U51C,0.06
19,G7C U43A U60A A64U,0.13
20,G7C U54C A75G,0.23
21,G7C U69C U72C U78C,0.08
22,G7C U72C U76A,0.03
23,G7U A13C A21G U41C A56G U80C,0.06
24,G7U A13C A21U U54C A56G U67C,0.12

row,Variant,self-cleavage
1,G7U A13C A35G A47G,0.11
2,G7U A13G A15U A47U,0.09
3,G7U A13G A20C A35U,0.07
4,G7U A13G A20G U60A U80C,0.07
5,G7U A13G C29A A45U U72C,0.29
6,G7U A13G U26C C38U U41C U74C,0.06
7,G7U A13U A15C A20U U26C U74A A75G,0.05
8,G7U A13U A75U U80C,0.19
9,G7U A13U G22C U41A G73U,0.04
10,G7U A13U G52C U78C,0.22
11,G7U A15G A20G U25A A28U A56G,0.26
12,G7U A15G A20U A35U A56G U67C,0.05
13,G7U A15G A28G U49A G61A U80A,0.04
14,G7U A15G G16C A18U C29G U80C,0.19
15,G7U A15G G52C,0.06
16,G7U A15G G53U,0.08
17,G7U A15G U25C U26C G63U C81U,0.18
18,G7U A15G U41C U54A U60A U72A,0.14
19,G7U A15G U48C U58C A77U,0.1
20,G7U A15U A28G U43C U48C U66A U69A,0.04
21,G7U A15U U25C U80C,0.2
22,G7U A15U U31C G36A,0.07
23,G7U A18G A21G U26C A56U,0.6
